Assay: soluble on expression in E. coli; label from the status in PepcDB or PDB records

Row | Sequence | soluble on expression in E. coli
1 | MGGSHHHHHHGMASQEIIASVDHIKFDLEIAVEQQLGAQPLPFPGMDKSGAAVCEFFLKAACGKGGMCPFRHISGEKTVVCKHWLRGLCKKGDQCEFLHEYDMTKMPECYFYSKFGECSNKECPFLHIDPESKIKDCPWYDRGFCKHGPLCRHRHTRRVICVNYLVGFCPEGPSCKFMHPRFELPMGTTEQPPLPQQTQPPAKQSNNPPLQRSSSLIQLTSQNSSPNQQRTPQVIGVMQSQNSSAGNRGPRPLEQVTCYKCGEKGHYANRCTKGHLAFLSGQ | not soluble
2 | SNASTTKLHPLINQKFQSPLSKEIFFESYFSTENLPFLADHIVYEQVVVPGASHISLLLAAASLTFAATECQIEDILFPQALAIPEQGVRTVQVVLTPQNNSFSFQVISFDDSLESQINQVSNNGSHISDWAVHATGKLSVANAEQSLIPLEEIQARCSQKIDSAEIYQHLWDRQIHLGQSFRWIEQVWLGEGEVLCQMKVPKTILNTTKYQLHPTLVDSCFQSIIALVLDQSGNKNETFVPFSIDKFTFYNSSDNDLLWCYTCGSKDKQSGEKFKADIQLFDQHGQLVAQVIGFEGRKANPKILLMT | soluble

Source: the DeepSol protein solubility set
